Measured values published in PubChem BioAssay AID1508623 (National Center for Advancing Translational Sciences (NCATS), 2021).
The whole screen tested about 48,000 compounds, of which about 450 (0.94%) were called active. Inconclusive results (about 19%) are left out. Calls come from the whole dose curve; as a rule, active = well fitted inhibition curve with a large enough effect; inconclusive = small, poorly fitted or top-dose-only effect; inactive = no such curve, though single readings can be large or run the other way. This is one part of the list.

experiment: Primary qHTS for Identification of Small Molecule Inhibitors of Huntingtin Promoter Activity; settings: HEK293 HTT promoter firefly luciferase reporter (activity 0% = vehicle and -100% = no light), 24 h; series mostly up to 57.5 µM; activity change, negative = inhibition: at the top concentration; note: nearly all actives have a fitted effect of over 50% in size
Outline: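 HEK293 Fluc reporter, 2,500 cells/well, 24 h pre-culture; cpds up to 57.5 uM final, 24 h 37 degrees C; Dual-Glo, 10 min RT; normalized vehicle = 0%, zero RLU = -100%.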

Activity change, negative = inhibition, inactive:
Cc1c(NC(=O)CC(C)C)cccc1-c1nc2cccnc2s1 -28.7%
COc1ccccc1OC(=O)Oc1ccccc1OC 1.87%
COc1ccc(/C=C\C(=O)NC2CC(=O)N(c3ccc(F)cc3)C2)cc1OC (stereo unspecified) 8.35%
CS(=O)(=O)c1oc(-c2ccc(F)cc2)nc1S(=O)(=O)c1ccc(Cl)cc1 1.28%
O=C(CSc1nc2c(sc3ccccc32)c(=O)n1CCCC(=O)NC1CCCC1)Nc1ccc(F)cc1 -14%
O=C(NCc1ccc(F)cc1)C1CCCN(c2ncnc3onc(-c4ccc(F)cc4)c23)C1 (stereo unspecified) -21.9%
CCOC(=O)CNC(=O)c1ccc(-c2nn(C)c(=O)c3ccccc23)cc1 30.1%
CC(=O)Nc1ccc(C(=O)O)cc1 8.68%
CCc1ccc(NCc2cc3ccc(OC)cc3n(CC(=O)Nc3ccc(C(C)C)cc3)c2=O)cc1 -31.6%
Cc1ccc(NC(=O)Cn2nnc(-c3nc(-c4ccncc4)no3)c2N)c(C)c1 0.278%
CC(NC(=O)C1CCN(C(=O)c2ccc(-n3ccc4ccccc43)s2)CC1)c1ccccc1 (stereo unspecified) -15.2%
COc1ccccc1NC(=O)C1=C(C)Nc2nc(SCc3ccc(Cl)cc3)nn2C1c1ccccc1Cl (stereo unspecified) -17.3%
CCOc1ccc(OC(=O)c2cn(-c3cccc(OC)c3)c(=O)c3ccccc23)cc1 -17.2%
CC1CCN(C(=O)c2cc3c(=O)n(C)c4ccccc4c3s2)CC1 17.6%
CCOC(=O)c1c(NC(C)=O)c2c3c(sc2n1Cc1ccc(Cl)cc1)CCCC3 -8.87%
COc1cc(C2NC(=O)N(C)C3=C2C(=O)N(c2cccc(Cl)c2)C3)ccc1O (stereo unspecified) -0.639%
CC(=O)c1cccc(NC(=O)C2=CC(c3ccc4c(c3)OCO4)=NS(=O)(=O)N2C)c1 -29.4%
Fc1ccccc1-n1ncc2c1ncn1nc(-c3ccccc3Cl)nc21 62.6%
Cc1cccc(CNC(=O)C(=O)Nc2ccccc2C)c1 22.4%
CC1CCCCN1CCCNC(=O)c1[nH]c2ccccc2c1Sc1ccc(Cl)cc1 (stereo unspecified) -24.3%
Cc1ccc(CNC(=O)c2ccc(CSCc3ccccc3Cl)o2)cc1 -7.49%
Cc1ccc(S(=O)(=O)NCC(c2ccc(N(C)C)cc2)N2CCc3ccccc32)cc1C (stereo unspecified) -22.8%
Cc1cccc(C)c1NC(=O)CSc1nc2ncccc2o1 -1.64%
CC(=O)N1CCc2cc(CNC(=O)Nc3cc(Cl)ccc3C)ccc21 -25.6%
COc1ccc(Cn2c(CCC(=O)Nc3cccc(OC)c3)nc3cccnc32)cc1 -25.1%
CCc1ccc(CNC(=O)C2CCN(c3nc4ccccc4nc3C(F)(F)F)CC2)cc1 -4.6%
Cc1ccc(NC(=O)c2c(NC(=O)Cc3ccccc3)sc3c2CCC3)cc1 -10.2%
COc1ccc2cc(-c3nc(Cl)c4c5c(sc4n3)CCCC5)c(=O)oc2c1 -6.35%
CN(C)c1ccc(-c2nc3cnccn3c2Nc2cccc(C(F)(F)F)c2)cc1 -1.19%
COc1ccc(NC(=O)Cn2c(=O)n(Cc3ccco3)c(=O)c3cc(OC)c(OC)cc32)cc1 -4.84%
Cc1cc2c(cc1S(=O)(=O)CCC(=O)N1CCCC(C)C1)OCC(=O)N2 (stereo unspecified) -13.6%
Cc1ccc(-n2ncc(C(=O)NCCN3CCOCC3)c2C2CCN(C(=O)OC(C)(C)C)CC2)c(C)c1 -11%
COCCn1c(CCC(=O)Nc2ccc(C)c(Cl)c2)nc2cccnc21 10%
Clc1ccc2nc(NCc3ccccc3)c3nncn3c2c1 -9.73%
CC1CCC(NC(=O)c2ccc3c(c2)N(Cc2ccccc2)C(=O)c2ccccc2S3(=O)=O)CC1 (stereo unspecified) 19.5%
COc1ccccc1CNC(=O)CCc1c(C)nc2c(c(C)nn2-c2ccc(C)c(C)c2)c1C -78.4%
CC(C)(C)OC(=O)N1CCC(c2c(C(=O)NCc3ccccc3)cnn2-c2ccccc2)CC1 -6.5%
CCCCn1c(=N)c(S(=O)(=O)c2ccc(Cl)cc2)cc2c(=O)n3cccc(C)c3nc21 -2.76%
Cc1cccc(Nc2c(-c3cccs3)nc3nc(C)cc(C)n23)c1 31.5%
CCc1ccc(CNC(=O)c2cc3c(=O)n(CC)c4ccccc4c3s2)cc1 -0.82%
O=C(NC(=O)c1ccccc1)Nc1ccc(-n2nc(C(F)(F)F)cc2C(F)(F)F)cc1 76.1%
COc1ccc(OC)c(NC(=O)Cn2c(=O)n(CC3CCCO3)c(=O)c3cc(OC)c(OC)cc32)c1 (stereo unspecified) 1.9%
COc1ccc(NC(=O)CN(C)S(=O)(=O)c2ccc3c(c2)CCC(=O)N3)c(OC)c1 -14.7%
CCOc1ccccc1CNC(=O)CN1C(=O)CSc2ccc(S(=O)(=O)N3CCOCC3)cc21 -9.8%
CCc1ccc(NC(=O)CSc2nc3c(sc4ccccc43)c(=O)n2CCCOC)cc1 -4.43%
CCOC(=O)CNc1nc2ccccc2n2c(C)nnc12 11.8%
CCN1CCC[C@H]1CNC(=O)c1c(O)c(Cl)cc(Cl)c1OC 11.2%
CC(C)(C)CC(=O)OCC(=O)[C@@]1(O)CC[C@H]2[C@@H]3CCC4=CC(=O)C=C[C@]4(C)[C@H]3[C@@H](O)C[C@@]21C -17.5%
O=[N+]([O-])c1ccc(S(=O)(=O)NCc2nc3cccnc3n2Cc2ccccc2Cl)cc1 -18.9%
COc1ccc(C)cc1NC(=O)Cn1c(=O)nc(-c2ccccc2F)c2cc(Cl)ccc21 -2.18%
COC(=O)c1cc(NC(=O)C2CCCN(S(=O)(=O)c3c(C)n[nH]c3C)C2)cc(C(=O)OC)c1 (stereo unspecified) -11.2%
O=c1nc2c(-c3ccc(F)cc3Cl)n[nH]n2c2ccccc12 7.58%
COCc1cc(C)nc2sc(C(=O)Nc3ccc(OC(F)(F)F)cc3)c(N)c12 -21%
Cc1c(C(=O)OCC2CCCCC2)[nH]c2c1C(=O)CC(c1ccc(F)cc1)C2 (stereo unspecified) 5.9%
N#Cc1cccc(Nc2ncnc3c2cnn3-c2cccc(Cl)c2)c1 27%
O=C(CSc1nncn2c1cc1occc12)Nc1ccccc1C(F)(F)F -28.2%
CCc1ccccc1NC(=O)CN(c1cccc(C)c1C)S(C)(=O)=O -15.6%
CCOC(=O)c1c(C)[nH]c(CCC(=O)Nc2c(Cl)cc(OC)cc2OC)c1C -22.4%
CCCc1nc2nc(C)c(NS(=O)(=O)c3ccc(F)cc3)c(=O)n2[nH]1 -15.1%
Cc1cc(C(=O)N2CCN(c3ccc(F)cc3)CC2)c2c(C)nn(-c3cccc(Cl)c3C)c2n1 -13.2%
COc1ccc(CNC(=O)Cn2c(=O)nc(-c3ccccc3F)c3cc(Cl)ccc32)cc1OC -16.6%
